# Where two headings read alike, the source gives them in different places.
# T1: human IL-2Rβ (human, UniProt P14784 27-240, limits assumed)
# T1 construct: also called hIL-2Rβ; IL-2 receptor beta
# T1 sequence (looked up): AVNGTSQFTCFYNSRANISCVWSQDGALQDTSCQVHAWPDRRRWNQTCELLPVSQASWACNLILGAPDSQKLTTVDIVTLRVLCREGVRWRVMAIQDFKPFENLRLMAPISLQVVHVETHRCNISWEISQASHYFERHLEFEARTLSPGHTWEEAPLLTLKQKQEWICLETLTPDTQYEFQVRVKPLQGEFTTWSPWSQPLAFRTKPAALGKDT
# Experiments:
# Assay in all cases: SPR, steady state
# human IL-15Rα [1] = biological target: T2, human IL-15Rα (human, UniProt Q13261 31-205, limits assumed)
# T2 construct: also called hIL-15Rα; IL-15 receptor alpha
# human IL-2Rβ [2] = biological target: T1, human IL-2Rβ
# human IL-15Rα [3] = biological target: T2, human IL-15Rα; remark: listed apart in the source
# human IL-2Rβ [4] = biological target: T1, human IL-2Rβ; remark: listed apart in the source
# T2 sequence (Q13261 31-205 limits assumed): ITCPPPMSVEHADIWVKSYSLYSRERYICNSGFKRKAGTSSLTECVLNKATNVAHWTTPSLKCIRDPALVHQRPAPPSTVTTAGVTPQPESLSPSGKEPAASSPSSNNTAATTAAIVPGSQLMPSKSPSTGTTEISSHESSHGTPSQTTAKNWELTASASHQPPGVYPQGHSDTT
binder,measurement,setting,value
hIL-15 V49R-GS-linker-8xHis-Avi tags (ligand) not shown,Kd,human IL-15Rα [1],94.2 nM
same,Kd,human IL-2Rβ [2],97.5 nM
same,Kd,human IL-15Rα [3],91.9 nM
same,Kd,human IL-2Rβ [4],109 nM

# From US20210324028A1 (Pfizer, published 2021)
